In PubChem BioAssay AID686978 (National Center for Advancing Translational Sciences (NCATS), 2013):
Out of some 420,000 compounds screened, about 64,000 (15%) were called active. The shares of active, inactive and inconclusive entries below differ from those in the screen. The call rests on the fitted dose curve; in most records, active means well fitted inhibition curve with a large enough effect; inconclusive means small, poorly fitted or top-dose-only effect; inactive means flat fitted curve, though single readings scatter. Potencies of inconclusive entries are left out as doubtful fits.

Assay: qHTS for Inhibitors of human tyrosyl-DNA phosphodiesterase 1 (TDP1): qHTS in cells in absence of CPT; further: nearly all actives have a fitted effect of over 55% in size
Details: DT40 Tdp1-/- hTDP1 cells, no CPT, ATP luminescence, 48 h; activity change, negative = growth inhibition: at 46.2 µM (top of the series)
Procedure, shortened: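 Growth of hTDP1-complemented DT40 Tdp1-knockout cells is measured by ATP luminescence after at least 48 hr compound exposure at 37 °C, with DMSO substituting for the 20 nM CPT used in the parallel screen.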
On the % scale 0 is the no-effect control and ±100 the full control effect; potency means the concentration at half of the fitted maximal effect; tags describe the fitted curve by direction and shape.

SMILES	Potency	activity change, negative = growth inhibition
COc1ccccc1N(CC(=O)NC1CCCCC1)S(=O)(=O)c1ccccc1	inconclusive [inhibitor, single point]	
CCOC(=O)c1ccc(NC(=O)Nc2ccccn2)cc1	inconclusive [inhibitor, single point]	
CCSc1nnc(NC(=O)C2CCN(S(=O)(=O)c3cc(C(F)(F)F)ccc3Cl)CC2)s1	inconclusive [inhibitor, partial curve]	
CC12CCC(=O)N1C(C(=O)NNC(=O)c1cccc(Cl)c1)CS2 (centres undefined)	inactive	
CCOc1cc(C)c(Cl)cc1S(=O)(=O)N(CC)CC		inconclusive: -36.6% [inhibitor]
CCn1cc2nc(SCc3ccccc3)n(Cc3ccc(C)cc3)c(=O)c2n1	active: 10.3 µM	
CC(=O)OC(/C(O)=C(\C#N)c1nc2ccccc2[nH]1)c1ccccc1 (centres undefined)	active: 18.4 µM	
CC[C@]1(O)C[C@@H]2CN(CCc3c([nH]c4ccccc34)[C@@](C(=O)OC)(c3cc4c(cc3OC)N(C)C3[C@]45CCN4CC=C[C@](CC)(C45)[C@@H](OC(C)=O)[C@]3(O)C(=O)OC)C2)C1 (some centres undefined)	active: 0.0159 µM	
COC(=O)c1sc2ccccc2c1NC(=O)c1coc2ccccc2c1=O	inconclusive [inhibitor, single point]	
CSc1ncc(C(=O)Nc2cccc(Cl)c2)c(C)n1	inconclusive [inhibitor, partial curve]	
CN(C)c1ccc(CNS(=O)(=O)c2csc(C(N)=O)c2)cc1	active: 7.31 µM	
COc1ccc(NS(=O)(=O)c2cc3c(cc2C)N(C)CCO3)cc1	inconclusive [inhibitor, single point]	
Cc1[nH]c2ccccc2c1/C=N/NC(=S)NC(C)C	inconclusive [inhibitor, single point]	
COc1cccc(NC(=O)c2ccccc2N2C(=O)C3C4C=CC(C4)C3C2=O)c1 (centres undefined)	inactive	
CCOC(=O)Cn1nnnc1CN(Cc1cccs1)Cc1cc2cc(C)cc(C)c2[nH]c1=O	active: 14.6 µM	
Cc1ccc(C(=O)Nc2nc(-c3ccc4c(c3)OCCO4)cs2)o1	inconclusive [inhibitor, single point]	
S=C(NCc1ccco1)Nc1ccc(N2CCOCC2)cc1	inactive	
O=C(Nc1ccc(F)cc1)C1C(c2ccccc2)C1(Cl)Cl (centres undefined)	inconclusive [inhibitor, single point]	
COc1ccc(C2=NS(=O)(=O)N(C)C(C(=O)NCc3ccccn3)=C2)cc1	inconclusive [inhibitor, single point]	
CCCCC[C@@H](C)N1C[C@@H](COCc2ccccc2)Oc2cc(N3CC[C@@H](N(C)C)C3)ccc2S1(=O)=O	active: 23.1 µM	
CCOC(=O)c1c(CN2CCCCC2C)oc2ccc(OC)cc12 (centres undefined)	inconclusive [inhibitor, single point]	
O=C(Cc1ccc(S(=O)(=O)N2CCOCC2)s1)N1CCN(S(=O)(=O)c2cccc([N+](=O)[O-])c2)CC1	inactive	
Cc1ccccc1-c1ccc2c(c1)O[C@@H](CN(C)C(=O)Nc1ccc(C(F)(F)F)cc1)[C@H](C)CN([C@@H](C)CO)S2(=O)=O	active: 13 µM	
O=C(O)COc1ccc(Cl)cc1C1CCCCC1	inactive	
CC(=NNC(N)=S)c1ccc2cc3c(cc2c1)OCO3	active: 10.3 µM	

SMILES	Potency	activity change, negative = growth inhibition
Cc1noc(C)c1NC(=O)Nc1cccc2c1O[C@@H](CN(C)C(=O)Nc1ccc3c(c1)OCO3)[C@@H](C)CN([C@H](C)CO)C2=O	inconclusive [inhibitor, partial curve]	
CCOC(=O)C(=O)NC(C)CCc1ccccc1 (centres undefined)	inactive	
CCCCC(=O)Nc1ccc(C(=O)NCCc2ccccc2)cc1	inactive	
C=CCS/C(N)=N\N=C\c1c(O)ccc2ccccc12	inconclusive [inhibitor, single point]	
CCCCn1c(N)c(N(CC)C(=O)c2ccco2)c(=O)[nH]c1=O	inactive	
COc1cccc(NC(=O)NC2CCN(CC(=O)Nc3ccccc3[N+](=O)[O-])CC2)c1	inconclusive [inhibitor, single point]	
CCOc1cccc(C(=O)Nc2ccccc2N2CCN(C(=O)C(C)C)CC2)c1	inconclusive [inhibitor, single point]	
CCOc1ccc(NC(C(=O)Nc2cccc(C(C)=O)c2)c2ccccc2)cc1 (centres undefined)	active: 14.6 µM	
Cc1ccccc1-c1nnc(SCC(=O)NC2CCCC2)n1C	inactive	
COc1ccc(C)cc1NC(=O)c1cc(S(=O)(=O)NCCC2=CCCCC2)ccc1F	inconclusive [inhibitor, single point]	
FC(F)(F)c1cc(CCN2C(=S)NC[C@@H]2c2ccccc2)cc(C(F)(F)F)c1	inconclusive [inhibitor, partial curve]	
O=C1CN=C(Nc2ccc(Cl)cc2)N1c1ccccc1	inconclusive [inhibitor, single point]	
COC(=O)C(C(=O)Nc1cccc(C)n1)C1CCCCCC1 (centres undefined)	inconclusive [inhibitor, single point]	
COc1ccc(CC(=O)Nc2cc(S(=O)(=O)N3CCCCC3)ccc2OC(C)C)cc1OC	active: 20.6 µM	
COc1ccc(-c2noc(CSc3nnc(C)n3-c3ccc(C)cc3)n2)cc1	inconclusive [inhibitor, single point]	
Cc1c(Cl)cccc1NC(=S)NC(=O)c1ccccc1	inconclusive [inhibitor, single point]	
CC(OC(=O)CCN1C(=O)C2CC=CCC2C1=O)C(=O)c1ccc(F)cc1 (centres undefined)	inactive	
Cc1ccc(NCc2nnc(SCC(N)=O)n2CC2CCCO2)c(C)c1 (centres undefined)	inactive	
CCCCNC(=O)C1(C)CCCCN1C(=O)c1cccc(OC(F)(F)F)c1 (centres undefined)	inconclusive [inhibitor, partial curve, poor fit]	
COc1ccccc1N1CCN(C(=O)c2[nH]c(C(F)(F)F)nc2-c2ccccc2)CC1	active: 5.8 µM	
CCCc1nc(-c2cc3ccccc3[nH]c2=O)no1	inactive	
N#CCCn1cc(/C=N/O)c(-c2ccc(Cl)cc2)n1	inactive	
COc1cccc(CN2CCc3nnc(CCc4ccccc4)n3CC2)c1OC	inactive	
O=C(OCC1OC(n2ncc(=O)[nH]c2=O)C(OC(=O)c2ccccc2)C1OC(=O)c1ccccc1)c1ccccc1 (centres undefined)	inconclusive [inhibitor, single point]	
Cc1cc(NCCCN2CCOCC2)n2nc(C)c(-c3ccc(F)cc3)c2n1	active: 16.4 µM	

SMILES	Potency	activity change, negative = growth inhibition
CS(=O)(=O)N1Cc2cc(C(=O)NCC3CCCCC3)nc(-c3cccc(-c4cccnc4)c3)c2[C@H]1CCO	inconclusive [inhibitor, single point]	
COCCNC(=O)CSc1nc2nn(-c3ccccc3)c(=O)c-2c2n1CCCCC2	inconclusive [inhibitor, single point]	
CC(=O)Nc1ccc(NC(=O)CN2CCN(c3cccc(C(F)(F)F)c3)CC2)cc1	inconclusive [inhibitor, partial curve]	
COCCCNC(=O)C(C)N1c2cccc3cccc(c23)S1(=O)=O (centres undefined)	active: 20.6 µM	
Cc1ccc(C2Nc3cccc4cccc(c34)N2)cc1	inconclusive [inhibitor, partial curve, poor fit]	
O=C(COc1cccc2cccnc12)Nc1cccc(S(=O)(=O)N2CCCC2)c1	inconclusive [inhibitor, single point]	
CC(NCc1cccs1)C(=O)Nc1cc(Cl)cc(Cl)c1 (centres undefined)	inconclusive [inhibitor, single point]	
Cc1cc(C)nc(N2CCCC(C(=O)Nc3nnc(C)s3)C2)n1 (centres undefined)	inactive	
CCn1cnc2cc(NC(=O)c3ccc(C)cc3)ccc21	inactive	
CC(C)(CO)[C@@H](O)C(=O)NCCC(=O)O	inactive	
CCOc1ccc(CSCCNC(=S)Nc2ccccc2)cc1	active: 23.1 µM	
COc1ccc(CCC(=O)OCC(=O)NC2CCCC2)cc1OC	inactive	
COc1ccc(NC(=O)c2ccccc2NC(=O)C2CCCCC2C(=O)O)cc1 (centres undefined)	inconclusive [inhibitor, single point]	
C#CCN1C(=O)S/C(=C\c2cc3c(cc2OC)OCO3)C1=O	inactive	
Cc1ccc(-n2cc(CN3CCC(CO)(Cc4cccc(C(F)(F)F)c4)CC3)cn2)cc1	active: 20.6 µM	
N#C/C(=C\c1ccc([N+](=O)[O-])o1)C(=O)Nc1ccc(F)cc1	active: 2.31 µM	
CC1CCN(C(=O)c2[nH]cnc2C(=O)N[C@@H](Cc2ccccc2)C(=O)OC(C)(C)C)CC1	inactive	
CCOc1ccc(C(CC(=O)Nc2ccc(C(=O)OC)cc2)N2Cc3ccccc3C2=O)cc1OC (centres undefined)	inactive	
C=CCn1c(=N)n(CC(=O)c2ccc(Cl)cc2)c2ccccc21	inconclusive [inhibitor, single point]	
Clc1ccc(/C=N/NC(=Nc2ccccc2)c2ccccn2)c(Cl)c1	active: 29.1 µM	
CCCNC(=O)c1onc(CSc2ccc(Cl)cc2)c1C(=O)NC(C)C	inactive	
CC1CCC(N2CCN(c3ccc([N+](=O)[O-])cc3)CC2)CC1 (centres undefined)	inconclusive [inhibitor, single point]	
COc1cccc(C(=O)Nc2nnc(S(=O)(=O)N3CCCCC3)s2)c1	inconclusive [inhibitor, single point]	
CCCCCC(=O)NNC(=O)c1ccc(-c2ccccc2)cc1	inactive	
